Drawing on publication PMC6212790, this text covers binding signal for 172 sequences.

Some of the results follow. At the low end of the ranking the order means little.

The assay deals with T1, GST-Rok-C97-191 (UniProt O34857).
T1 sequence: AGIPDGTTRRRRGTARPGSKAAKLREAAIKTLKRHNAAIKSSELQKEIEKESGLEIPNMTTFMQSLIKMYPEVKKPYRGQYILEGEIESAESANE
As to the kind of experiment: protein binding microarray.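 Note: rank score from −0.5 (least bound) to 0.5 (best bound).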 Conditions: Rok is a gene silencer of Bacillus subtilis; high values mean tight binding; most listed sequences are background and not binding sites; double strand, one strand shown.
In turn, CTATCTTC showed a binding signal of 0.105 E-score.

Sequence GCTGCACC displayed a binding signal of -0.237 E-score.

In turn, TCGGCCCA showed a binding signal of -0.114 E-score.

CTTCCAAA showed a binding signal of 0.0546 E-score.

Take ACCTGTGA: the binding signal is -0.126 E-score.

As to ACCTAATG, the binding signal was -0.0772 E-score.

The sequence GCAGTCCA registered a binding signal of -0.165 E-score.

In the case of CCTCTGCA, the binding signal was -0.219 E-score.

Regarding TTCATAAA, the binding signal was found to be 0.229 E-score.

With CATTGACA, the binding signal was -0.0978 E-score.

For ATTAAGCA, the binding signal is -0.0638 E-score.

On to CGTAAAGA, for which the binding signal was -0.00312 E-score.

With TGTTCCAA, the binding signal was -0.105 E-score.

For the sequence CGCCTTTA, the binding signal was -0.278 E-score.

In turn, GCTCACCC came in with a binding signal of -0.231 E-score.

For AAATTGGT, the binding signal is 0.297 E-score.

AACTGTCG returned a binding signal of 0.0055 E-score.

For CAGCTTTA, the binding signal is 0.101 E-score.

As for GGCAATTA, the binding signal came out at 0.168 E-score.

As for CACAGAGG, the binding signal was -0.0801 E-score.

As for GACCGCTA, the binding signal was determined as 0.0642 E-score.

Regarding AAGCCCCA, the binding signal is -0.204 E-score.

In turn, ACGTTCAG displayed a binding signal of -0.147 E-score.

For the sequence TACGAGCA, the binding signal was 0.0492 E-score.

Take ACGTGCTG: the binding signal was found to be 0.00519 E-score.

With CATGAAGA, the binding signal is -0.0304 E-score.

In the case of CTACGGCA, the binding signal worked out at 0.0776 E-score.

Turning to AAACAACA, the binding signal is -0.00748 E-score.

For CCGATGAA, the binding signal was -0.155 E-score.

Sequence GGCTAGCC displayed a binding signal of -0.178 E-score.

With GGCTCCAC, the binding signal is -0.216 E-score.

CCAGATAG showed a binding signal of 0.179 E-score.

The sequence AGGGCCGA gave a binding signal of -0.305 E-score.

Regarding AATTTGCA, the binding signal came out at 0.0951 E-score.

Regarding ACGCACTG, the binding signal came out at 0.114 E-score.

Sequence AGCTAGCT showed a binding signal of 0.122 E-score.

Regarding AGTCTATC, the binding signal was -0.0937 E-score.

TAGGCAAA registered a binding signal of 0.00802 E-score.

CGTAGCTC: the binding signal is -0.0684 E-score.

For CGCAAAAA, the binding signal turned out to be 0.0321 E-score.

GATCAGAC gave a binding signal of 0.0437 E-score.

CAAAAACC displayed a binding signal of 0.109 E-score.

The sequence ATTAGAAA came in with a binding signal of 0.282 E-score.

GACAGGAC had a binding signal of -0.14 E-score.

CCTGGGCC gave a binding signal of -0.0592 E-score.

CGCGAAAG yielded a binding signal of -0.243 E-score.

ATTGCAAT had a binding signal of 0.0829 E-score.

For ATTATCCG, the binding signal is 0.0272 E-score.

In the case of ACTGGGAG, the binding signal is -0.151 E-score.

Consider AAAAGGTA, for which the binding signal is 0.293 E-score.

AAAGACTT came in with a binding signal of -0.00647 E-score.

As to CCCGGTAA, the binding signal is -0.0362 E-score.

The sequence GGCATGCA yielded a binding signal of -0.192 E-score.

With CGTAATCC, the binding signal was -0.205 E-score.

The sequence GTGCGCTA showed a binding signal of -0.0229 E-score.

The sequence ACTAACTC registered a binding signal of 0.125 E-score.

On to AAAAAGAA, for which the binding signal came to 0.0124 E-score.

For the sequence AGATTTCC, the binding signal amounted to 0.196 E-score.

Sequence ATCCCTGA registered a binding signal of -0.205 E-score.

Consider ATAAACCC, for which the binding signal was 0.0979 E-score.

Turning to CAATGACC, the binding signal was -0.175 E-score.

With AACAGCTG, the binding signal was -0.0197 E-score.

In turn, AAAACTGT showed a binding signal of 0.0809 E-score.

Sequence AAGCGCAT had a binding signal of -0.0193 E-score.

Sequence ATCGGGTA gave a binding signal of 0.21 E-score.

AATCTCAG yielded a binding signal of -0.0322 E-score.

GCCCGTGA: the binding signal is -0.196 E-score.

On to GAATAGCA, for which the binding signal was -0.0833 E-score.

CGGGTTAA gave a binding signal of -0.122 E-score.

ATACCCCG: the binding signal was -0.111 E-score.

For GGGCCCCA, the binding signal is -0.293 E-score.

Sequence GCAAATAA displayed a binding signal of 0.158 E-score.

With CAGATGGA, the binding signal was -0.12 E-score.

With ATAGAATA, the binding signal was 0.354 E-score.

In turn, CTACACGA showed a binding signal of 0.0662 E-score.

Sequence CGGCTTGC showed a binding signal of -0.137 E-score.

The sequence AGGTGGCG gave a binding signal of 0.0312 E-score.

Consider CCAGGCCG, for which the binding signal is -0.0324 E-score.

AGGGCTCG returned a binding signal of -0.236 E-score.

GTAAGTCA yielded a binding signal of 0.00791 E-score.

The sequence AGGTAGAG returned a binding signal of 0.118 E-score.

Turning to TAGACTCA, the binding signal was -0.0392 E-score.

On to AACCTACC, for which the binding signal was 0.232 E-score.

AGCTTCTG showed a binding signal of -0.0648 E-score.

Take ATTAACTG: the binding signal turned out to be 0.214 E-score.

For GCTAGTTA, the binding signal was determined as 0.284 E-score.

Take CCCCAAAC: the binding signal is -0.0481 E-score.

CTCACATC gave a binding signal of -0.132 E-score.

With ATTGGGCA, the binding signal is -0.172 E-score.

ACGGCGGC gave a binding signal of -0.213 E-score.

As for CTAACTGC, the binding signal is -0.00452 E-score.

CTAGGAAC registered a binding signal of -0.0183 E-score.

In turn, CACCTCCA came in with a binding signal of -0.255 E-score.

As to ACCGGGTA, the binding signal stood at 0.103 E-score.

GACACCTC came in with a binding signal of -0.176 E-score.

Consider CGAGTTAA, for which the binding signal was 0.148 E-score.

TAGAGGCA: the binding signal is -0.0245 E-score.

CGCACATC showed a binding signal of 0.00746 E-score.

As to ACGCATCC, the binding signal was -0.149 E-score.

Take AGAGGGAA: the binding signal was -0.173 E-score.

Sequence CCGAGGTA gave a binding signal of 0.137 E-score.

Regarding CATTTCCC, the binding signal was -0.214 E-score.

Sequence GAGTTAGC showed a binding signal of 0.0102 E-score.

As for AAATCGGT, the binding signal was -0.0067 E-score.

In turn, AAAATGGC yielded a binding signal of 0.0616 E-score.

GCCGGACA returned a binding signal of 0.0879 E-score.

Sequence CGGTACCG yielded a binding signal of 0.0415 E-score.

GGGCACCC gave a binding signal of -0.354 E-score.

The sequence AGAATGCA came in with a binding signal of 0.038 E-score.

For the sequence ATCTTCGA, the binding signal stood at 0.0445 E-score.

With ACTATTAC, the binding signal is 0.4 E-score.

GCTATCCA showed a binding signal of 0.0235 E-score.

Sequence AAACTGTG returned a binding signal of -0.0049 E-score.

The sequence CACCGTCA had a binding signal of -0.156 E-score.

AGCACTGG returned a binding signal of -0.253 E-score.

The sequence AGCGCGGG returned a binding signal of -0.317 E-score.

CCCTGCAC registered a binding signal of -0.227 E-score.

ATCTTAAC: the binding signal was 0.274 E-score.

ATCCCTCA: the binding signal was -0.0288 E-score.

Sequence AGCGATGG yielded a binding signal of -0.149 E-score.

With ACTAGCTG, the binding signal amounted to 0.212 E-score.

Sequence ACAGTTAA returned a binding signal of 0.093 E-score.

CAAAGCAC showed a binding signal of -0.0357 E-score.

Regarding AATTCTAG, the binding signal was determined as 0.325 E-score.

Take CCTCGACG: the binding signal is -0.161 E-score.

GTCAGCAC: the binding signal was -0.267 E-score.

GCATCTCA yielded a binding signal of -0.0557 E-score.

With AGTCGATC, the binding signal was -0.00304 E-score.

On to TGCTCCAA, for which the binding signal was -0.148 E-score.

As to GCCGTCCA, the binding signal was -0.136 E-score.

For the sequence GATCTGGA, the binding signal was -0.159 E-score.

With ACTTCAAC, the binding signal turned out to be 0.0391 E-score.

Turning to AAGATGAG, the binding signal was 0.0366 E-score.

ACCAATGG showed a binding signal of -0.00677 E-score.

The sequence CAACTCCA displayed a binding signal of -0.0587 E-score.

CCGCACAC: the binding signal is -0.0305 E-score.

In the case of GTGCATCA, the binding signal was -0.03 E-score.

With AGCCTACC, the binding signal was -0.0592 E-score.

With AGAATAAT, the binding signal was 0.213 E-score.

CTAAATGA yielded a binding signal of -0.0412 E-score.

Sequence CCACGACG displayed a binding signal of -0.00537 E-score.

On to AGTAAGCA, for which the binding signal amounted to 0.0637 E-score.

AGGTAACG had a binding signal of -0.039 E-score.

GGGAAACC had a binding signal of -0.209 E-score.

With AATCCACC, the binding signal was -0.195 E-score.

ATTATTCC returned a binding signal of 0.253 E-score.

Consider AAGATCCA, for which the binding signal was -0.156 E-score.

On to ATGCTTTA, for which the binding signal was determined as 0.0435 E-score.

In turn, ATGGTCAC displayed a binding signal of 0.00474 E-score.

Regarding CGTGATCA, the binding signal is 0.103 E-score.

As for AGACATTG, the binding signal is -0.107 E-score.

Turning to GTAAACGA, the binding signal is -0.119 E-score.

Take GACCAAGC: the binding signal was -0.178 E-score.

AAATTCAC showed a binding signal of 0.12 E-score.

As for GCTAGAAC, the binding signal was determined as 0.18 E-score.

In turn, CCGGATCG returned a binding signal of -0.171 E-score.

Regarding GTAATATA, the binding signal stood at 0.335 E-score.

On to CGGCCATC, for which the binding signal is -0.272 E-score.

As for CCGCCCCG, the binding signal was -0.352 E-score.

GCCGGTGA had a binding signal of -0.195 E-score.

Take GGAACATA: the binding signal was determined as 0.0302 E-score.

For the sequence AGGCGACA, the binding signal was -0.159 E-score.

Regarding CCCGAGCC, the binding signal is -0.207 E-score.

For the sequence CCCAACGA, the binding signal is -0.243 E-score.

The sequence ACTAGATA had a binding signal of 0.403 E-score.

In the case of AGTATGGA, the binding signal is -0.00621 E-score.

Sequence CACGCCGC returned a binding signal of -0.263 E-score.

GGATGAAC showed a binding signal of 0.0137 E-score.

Sequence ATGGTTGA had a binding signal of -0.213 E-score.

CATGGAAA yielded a binding signal of 0.0212 E-score.

The sequence CGGTTAGA displayed a binding signal of 0.0858 E-score.

For the sequence AGCTTCAC, the binding signal came to 0.0369 E-score.
